Test results from PubChem BioAssay AID493208 (National Center for Advancing Translational Sciences (NCATS), 2011).
About 340 (0.77%) of roughly 44,000 compounds were called active. Another 5% or so got no clear call; they are omitted. The call rests on the fitted dose curve; in most records, active means well fitted inhibition curve with a large enough effect; inconclusive means small, poorly fitted or top-dose-only effect; inactive means flat fitted curve, though single readings scatter. Some of the results follow.

Assay: Acumen qHTS Assay for Inhibitors of the mTORC1 Signaling Pathway in MEF (Tsc2-/-, p53-/-) Cells: Sytravon;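 further: plate controls were DMSO for no effect and rapamycin for full effect; nearly all actives have a fitted effect of over 50% in size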
Details: phospho-rpS6 immunofluorescence/PI, 24 h; series mostly up to 38.3 µM; activity change, negative = inhibition: at the top concentration
Procedure, shortened: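 Readout is phospho-S6 Alexa 488 signal normalized to PI per well, reported as % active cells with thresholds set from rapamycin (7.5 nM) and DMSO controls. Cells: Tsc2-/-, p53-/- MEFs, 24 hrs compound at 37 C; PI cell number serves as viability.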

Compound	activity change, negative = inhibition
COc1ccccc1Nc1nn2c(=O)c3ccc(C(=O)NCc4cccs4)cc3nc2s1	inactive: -5.43%
COc1ccc(-c2cn3c(n2)sc2cc(C(=O)NCc4ccccc4OC)ccc23)cc1	inactive: -3.07%
COC(=O)c1cc(S(=O)(=O)NCC2CCN(Cc3cc(C)ccc3C)CC2)c[nH]1	inactive: -6.07%
COc1ccc(N2CCN(C(=O)c3ccc(C)c(NC(=O)c4nsc5ccccc45)c3)CC2)cc1	inactive: -12.6%
COc1ccc(OC)c(S(=O)(=O)NCCc2sc(-c3ccc(C)cc3)nc2C)c1	inactive: -7.05%
CCOC(=O)c1c(NC(=O)/C=C/c2ccccc2)sc2c1CCCC2	inactive: 12.6%
Cc1ccc2c(=O)c(C(=O)c3ccc(F)cc3)cn(CC(=O)NCc3ccccc3)c2n1	inactive: 2.96%
COc1cccc(Cn2c(CNC(=O)C(C)C)nc3cccnc32)c1	inactive: 2.48%
COc1ccc(C(=O)Nc2ccc(-c3nc4ncccc4o3)cc2)cc1	inactive: -0.772%
CC(C)(C)OC(=O)N1CCC(c2c(C(=O)NCc3ccccn3)cnn2-c2ccccc2)CC1	inactive: 6.13%
O=C(CSc1ncc2c(n1)-c1cc(Cl)ccc1N(Cc1ccccc1)S2(=O)=O)NCCc1ccccc1	inactive: 0.913%
COc1ccc(NC(=O)c2cccn2-c2nnc(N3CCCCC3)s2)c(OC)c1	inactive: 2.5%
CCOC(=O)COc1cc(C)c(Cl)cc1C(=O)c1ccn2nc(-c3ccc(OC)cc3)cc2n1	inactive: -0.308%
CCc1nn(CC(=O)NCCc2ccc(OC)c(OC)c2)c(=O)c2cc3occc3n12	inactive: -2.37%
CCOC(=O)c1ccc(NC(=O)CSc2nc(-c3ccc(F)cc3)cc(C(F)(F)F)c2C#N)cc1	inactive: -5.45%
CCOc1ccc(NC(=O)C2=C(C)C(=O)OC23CCC(C)CC3)cc1 (centres undefined)	inactive: -2.24%
COc1ccccc1NC(=O)c1ccc(-c2nc(COc3ccc(C)cc3)c(C)o2)cc1	inactive: -7.06%
Cc1ccc(NC(=O)Nc2c(C)n(C)n(-c3ccccc3)c2=O)c(Cl)c1	inactive: -19%
CCOC(=O)c1c(C)[nH]c(C)c1S(=O)(=O)N(C)CC(=O)NCc1ccc(C)cc1	inactive: -1.34%
CCOc1cccc(CNC(=O)c2ccc(N3CCCC3)c(NC(=O)Nc3ccccc3CC)c2)c1	inactive: 0%
COc1ccc(C2CC(=O)c3cc(-c4nc(-c5ccc(C)cc5)cs4)c(=O)[nH]c3C2)cc1 (centres undefined)	inactive: -0.363%
CC(C)c1ccc(NC(=O)Cc2ccc(NC(=O)N3CCCCc4ccccc43)cc2)cc1	inactive: -15.1%
CCC1CN(C(=O)NCc2ccc(F)cc2)c2cc(Cl)ccc2O1 (centres undefined)	inactive: -17.6%
CCCCOc1ccc(CNC(=O)CN2C(=O)CCn3nc(-c4cn(C)c5ccccc45)cc32)cc1	inactive: -17.6%

Compound	activity change, negative = inhibition
COc1ccc(NC(=O)C2CCCN(S(=O)(=O)c3c(C)[nH]c(=O)[nH]c3=O)C2)cc1 (centres undefined)	inactive: 4.02%
COc1cc(OC)c(NC(=O)CC(C)S(=O)(=O)c2ccc3c(c2)NC(=O)CO3)cc1Cl (centres undefined)	inactive: -7.96%
CCn1cc(S(=O)(=O)c2ccc(OC)cc2)c(=O)c2cc(F)c(N3CCCCCC3)cc21	inactive: 0.89%
COc1ccc(S(=O)(=O)NCCc2csc(-c3cccc(F)c3)n2)cc1OC	inactive: -6.1%
CCOc1ccc(/C=C/C(=O)Nc2sc3c(c2C(=O)OC)CCCC3)cc1	inactive: -8.27%
Nc1nc(Nc2cccc(Cl)c2)sc1C(=O)c1ccc(F)cc1	inactive: -9.03%
COc1ccc(-c2nn(-c3ccc(C)c(Cl)c3)c3c2cnc2cc(OC)c(OC)cc23)cc1	inactive: 0%
CCN1CCN(c2nc3c(S(=O)(=O)c4ccc(C)cc4)nnn3c3ccsc23)CC1	inactive: 3.19%
CCN(CC)S(=O)(=O)c1ccc2c(c1)N(CC(=O)NCCc1ccccc1)C(=O)CO2	inactive: -0.174%
CCC(Oc1ccccc1)C(=O)Nc1cc(-c2ccccc2F)nn1-c1ccccc1 (centres undefined)	inactive: -3.07%
CCOc1ccc2nc(N3CCCC(C(=O)Nc4ccc(CC)cc4)C3)sc2c1 (centres undefined)	inactive: -6.9%
CCc1ccc2oc(-c3cccc(NC(=O)COc4ccccc4Cl)c3)nc2c1	inactive: -7.58%
CCOc1ccc(NC(=O)CSc2nc3ccsc3c(=O)n2CC)cc1	inactive: -9.3%
COc1cc(NC(=O)C(CC(C)C)N2Cc3ccccc3C2=O)cc(OC)c1 (centres undefined)	inactive: -0.63%
Cc1ccc(NC(=O)Cn2c(=O)nc(-c3ccccc3)c3ccccc32)cc1	inactive: 0%
Cc1cccc(C(=O)n2nc(-c3cccnc3)nc2NCc2ccc(F)cc2)c1	inactive: -1.25%
Cc1c(C(=O)NCc2cccc(F)c2)oc2c1-c1[nH]ncc1CC2	inactive: -1.1%
CCCCOc1ccc(CNC(=O)c2cnc3sc(N4CCCCCC4)nn3c2=O)cc1	inactive: -1.41%
CCCCNC(=O)CCn1nc(-c2ccc(Cl)cc2)c2ccccc2c1=O	inactive: -0.465%
COc1ccc(-c2cc(C)no2)cc1S(=O)(=O)N1CCCC(C)C1 (centres undefined)	inactive: 4.57%
CC(C)CCNC(=O)c1cc(-c2ccc(Br)s2)nc2ccccc12	inactive: -18.5%
Cn1c(=O)[nH]c(=O)c2c1nc(CN1CCN(c3ccccc3)CC1)n2Cc1c(F)cccc1Cl	inactive: 2.5%
Cc1cccc(NC(=O)c2ccc3[nH]c(C)cc(=O)c3c2)c1	inactive: -0.761%
CC(C)(C)c1ccc(C(=O)Nc2ccc(NC(=O)c3ccc(Cl)c(Cl)c3)cc2)cc1	inactive: -10.2%

Compound	activity change, negative = inhibition
CCC(=O)N1CCc2cc(S(=O)(=O)NC(Cc3ccccc3)C(=O)NCc3ccccc3OC)ccc21 (centres undefined)	inactive: -8.24%
Cc1cccc(CCNC(=O)c2cc3c(=O)[nH]c4ccc(C)cc4c3s2)c1	inactive: -2.75%
COc1ccccc1CNc1nc2ccccc2c2nc(-c3cccc(C)c3)nn12	inactive: -3.22%
COc1ccc(-c2nc3sc(CCNC(=O)C(=O)Nc4cc(F)ccc4F)c(C)n3n2)cc1	inactive: 0.844%
COc1cc([N+](=O)[O-])ccc1NC(=O)N1CCC2(CC1)Nc1ccccc1-n1cccc12	inactive: 3.3%
COc1ccc2cc3cc(C(=O)N4CCN(c5cccc(C(F)(F)F)c5)CC4)sc3nc2c1	inactive: 5.25%
CCn1cc(C(=O)NCCN(CC(C)C)CC(C)C)c(=O)c2cc(S(=O)(=O)N(C)C3CCCCC3)ccc21	inactive: -11%
CCOCCCn1c(SCC(=O)NCc2ccccc2)nc2c(sc3ccccc32)c1=O	inactive: -0.996%
Cn1c(=O)n(C)c2cc(N3CCOCC3)c(NC(=O)c3ccc(C(C)(C)C)cc3)cc21	inactive: -0.965%
COc1ccc(NC(=O)c2nnn(CC(=O)Nc3cccc(C)c3C)c2N)c(OC)c1	inactive: -1.18%
CCCCOc1ccccc1Cn1c(=O)sc2ccccc21	inactive: -8.28%
CCOc1ccc(C(=O)Nc2cccc(NC(=O)c3ccc(Cl)cc3Cl)c2)cc1	inactive: 6.47%
Cc1cccc(NC(=O)CN(C)S(=O)(=O)c2ccc3c(c2)CCC(=O)N3)c1C	inactive: 4.66%
Cc1ccc(Nc2nc3ccccc3nc2-n2nc(C)cc2C)c(Cl)c1	inactive: -3.62%
CCc1cccc(N2C(=O)CS(=O)(=O)C23C(=O)N(Cc2ccccc2)c2ccc(C)cc23)c1 (centres undefined)	inactive: -3.45%
CSc1ccc(CNC(=O)c2sc3ncnc(N(C)C4CCCCC4)c3c2C)cc1	inactive: -0.614%
Cc1cccc(C(=O)N2c3ncnn3C3(CCCCC3)[C@@H]3CCCC[C@@H]32)c1	inactive: -9.12%
CCOc1ccc(CN2C(=O)C(=O)c3cccc(C)c32)cc1OC	inactive: -21.5%
Cc1cccc(Nc2cc(C)nc(-n3nc(C)cc3C)n2)c1	inactive: -4.26%
Cc1c(C(=O)Nc2ccc(F)cc2)oc2ccc(S(=O)(=O)N3CCCCCC3)cc12	inactive: -4.65%
CCOC(=O)c1cccc(NS(=O)(=O)c2ccc(-c3coc(C)n3)cc2)c1	inactive: -16.4%
Cc1cc(C)c(NC(=O)C2CCN(C(=O)N3CCOc4ccccc43)CC2)c(C)c1	inactive: -2.09%
COC(=O)c1ccc2c(=O)n(CCc3ccc(S(N)(=O)=O)cc3)c(SCC(=O)C(C)(C)C)nc2c1	inactive: -1.66%
Cc1ccc(-c2c3c(=O)n(C)c(=O)n(C)c3c3cnc4ccccc4n23)cc1	inactive: -7.43%

Compound	activity change, negative = inhibition
Cc1ccc(S(=O)(=O)CC(=O)Nc2nc3c(C)cccc3s2)cc1	inactive: 0.594%
CSc1ccc(/C=C/c2nc3ccccc3n2S(=O)(=O)c2ccc(Br)cc2)cc1	inactive: -18%
Cc1ccc(N2CCN(Cc3nnc(-c4ccccc4F)o3)CC2)c(C)c1	inactive: -8.48%
CCOC(=O)c1c(C)[nH]c(C)c1S(=O)(=O)N1CCCC(C(=O)Nc2cccc(CC)c2)C1 (centres undefined)	inactive: 0%
CCOc1ccc(NC(=O)CCc2c(C)nc3nc(-c4cc(OC)cc(OC)c4)nn3c2C)cc1	inactive: -8.73%
COc1cccc(NC(=O)/C(C#N)=C/c2c(C)n(Cc3ccccc3)c3ccccc23)c1	inactive: 2.25%
CC(=O)N1CCc2cc(Br)cc(S(=O)(=O)NCCc3cccc(C)c3)c21	inactive: -0.281%
Fc1ccc(C(NCCc2ccc(Cl)cc2)c2nnc(-c3ccccc3Cl)o2)cc1 (centres undefined)	inactive: 2.5%
O=C(Nc1ccc(Cl)c(C(F)(F)F)c1)c1nc2ccccc2nc1N1CCCCC1	inactive: -6.04%
COc1ccc(-n2nnc(-c3nsc(NC(=O)c4cccc(C)c4)n3)c2C)cc1OC	inactive: -5.47%
COc1ccc(-c2[nH]c3c(c2-c2c(-n4cccc4)n(C)c(=O)[nH]c2=O)c(=O)[nH]c(=O)n3C)cc1F	inactive: -4.69%
COc1cccc(NC(=O)Cn2nnc(C(=O)NCc3ccc4c(c3)OCO4)c2N)c1	inactive: -13.1%
CCN1CCN(c2ncc3c(n2)CCN(Cc2cccc(F)c2F)C3)CC1	inactive: 9.51%
COC(=O)c1ccccc1NC(=O)c1nn(C)c2c1COc1ccccc1-2	inactive: -1.23%
Cc1cccn2c(=O)c3cc(C#N)c(=O)n(-c4nnc(SCc5ccc(F)cc5)s4)c3nc12	inactive: -4.69%
Cc1cc(C)c(NC(=O)CSc2nc(=O)n(Cc3cccnc3)c3c2CCC3)c(C)c1	inactive: 0.194%
COc1ccccc1Nc1ncc2c(n1)CCN(Cc1cc(F)cc(F)c1)C2	inactive: 9.1%
N#C/C(=C/c1ccccc1Cl)c1nc2ccccc2c(=O)[nH]1	inactive: -3.84%
CCCCCCNC(=O)c1c[nH]c2ccc(S(=O)(=O)N(C)c3ccc(C(C)C)cc3)cc2c1=O	inactive: 9.57%
COc1ccc(N2CCN(C3(c4ccccc4)C(=O)c4ccccc4C3=O)CC2)cc1	inactive: 1.54%
Cc1ccc(Cn2c(CO)cnc2SCC(=O)NCc2ccccc2Cl)cc1	inactive: -4.59%
Cc1ccc(Cl)cc1N(C)C(=O)c1cc2c(Cl)nc3ccccc3c2s1	inactive: -9.8%
